# Where “and” joins values, the source holds several entries; their conditions need not be identical. Identical values can stand only once. Screen size: about 350,000 compounds; about 260 (0.074%) were called active. The shares of active, inactive and inconclusive entries below differ from those in the screen. Calls come from the whole dose curve; as a rule, active = well fitted inhibition curve with a large enough effect; inconclusive = small, poorly fitted or top-dose-only effect; inactive = no such curve, though single readings can be large or run the other way. Potencies beside an inconclusive call are fits to weak or partial responses and may not hold up.
# Target: Ferritin light chain (Equus caballus) (UniProt P02791)
# Sequence of UniProt P02791 (P02791 whole entry, looked up): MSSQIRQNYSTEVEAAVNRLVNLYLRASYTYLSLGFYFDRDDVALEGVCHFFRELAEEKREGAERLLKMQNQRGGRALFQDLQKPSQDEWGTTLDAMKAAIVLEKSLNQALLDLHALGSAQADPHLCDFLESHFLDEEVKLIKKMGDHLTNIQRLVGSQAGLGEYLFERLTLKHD
# Experiment: qHTS Assay for Identification of Novel General Anesthetics; note: nearly all actives have a fitted effect of over 20% in size
# Details: apoferritin/1-aminoanthracene competitive binding, fluorescence; activity change, negative = displacement: at 77.5 µM (top of the series)
# Method in brief: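 Horse-spleen apoferritin (10 uM) was mixed with 50% saturated 1-aminoanthracene in PBS, exposed to compounds for 10 min at room temperature, and read for fluorescence (ex 380 nm, em 535 nm). Competitive displacement was fitted with a four-parameter Hill equation.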
# % is set by controls: 0 for no effect and ±100 for the full control effect; potency is the fitted concentration of half-maximal effect; tags give direction and shape of the fitted curve.
Compound,Potency,"activity change, negative = displacement"
CC12CC(NC(=O)N1CCc1ccccc1)c1ccccc1O2 (configuration not stated),"inconclusive: 50.1 µM [inhibitor, partial curve]",
Oc1ccc(/C=N/Nc2ncc(Br)cn2)c(O)c1,,inactive: -16.1%
c1ccc(Nc2cccc(Nc3ccccc3)n2)cc1,"inconclusive: 50.1 µM [inhibitor, single point]",
C=CCn1c(Cc2ccccc2)n[nH]c1=S,"inconclusive: 39.8 µM [inhibitor, partial curve]",
CCn1cc2nc(SCC(=O)Nc3ccc(C)cc3)n(Cc3ccc(C)cc3)c(=O)c2n1,,inactive: -7.39%
O=C(NCc1ccccc1F)c1sc2ncccc2c1-n1cccc1,,inactive: -18.9%
O=C(NCc1ccccc1)c1cccc(COc2ccccc2Cl)c1,"inconclusive: 3.16 µM [inhibitor, full curve, poor fit]",
Cc1noc2ncnc(N3CCN(c4ccc(F)cc4)CC3)c12,,inactive: -4.86%
CCN(CC)c1ccc(NC(=O)CN2CCN(c3ccccc3F)CC2)cc1,"inconclusive: 22.4 µM [inhibitor, partial curve]",
CCOC(=O)c1nnn(CC(=O)N2N=C(c3cccc4ccccc34)CC2c2ccccc2)c1C(=O)OCC (configuration not stated),,inactive: -5.01%
COc1ccc(-c2cc(C(F)(F)F)nc(N3CCN(C)CC3)n2)cc1,,inactive: -21.7%
Cc1cccc(NC(=O)CN2C(=O)C(c3ccccc3)=NC23CCC(C)CC3)c1 (configuration not stated),"inconclusive: 10 µM [inhibitor, partial curve]",
CC1Oc2ccccc2N(Cc2ccccc2Cl)C1=O (configuration not stated),"inconclusive: 44.7 µM [inhibitor, partial curve]",
CCCCOc1ccc(NC(=O)CSCC(=O)OCC)cc1,"inconclusive: 35.5 µM [inhibitor, partial curve]",
Clc1ccc(OCc2nnc3n2N=C(c2ccc4c(c2)OCCO4)CS3)c(Cl)c1,"inconclusive: 3.98 µM [inhibitor, single point]",
O=C(O)COc1cccc2c1CCC=C2CCO/N=C(\c1ccccc1)c1cccnc1,,inactive: -1.53%
Cn1c(SCCC#N)nnc1-c1ccccc1F,,inactive: -7.59%
Cc1cc(C)cc(OCc2nc(-c3cccnc3)no2)c1,"inconclusive: 35.5 µM [inhibitor, single point]",
CC(=O)C1=C(c2ccccc2)N(C(C)=O)n2c(nnc2C2CCCCC2)S1,,inactive: -6.35%
COc1ccccc1CNC(=S)Nc1ccc(F)cc1,,inactive: -10.8%
O=[N+]([O-])c1ccc(NNC(=S)Nc2ccccc2)cc1,"inconclusive: 14.1 µM [inhibitor, partial curve]",
CCc1nnc(NC(=O)CN2C(=O)NC3(CC(C)CC(C)(C)C3)C2=O)s1 (configuration not stated),"inconclusive: 31.6 µM [inhibitor, single point]",
Nc1nc2c(s1)CCc1c-2cnn1-c1ccccc1,"inconclusive: 28.2 µM [inhibitor, partial curve]",
O=C(O)Cn1nc(-c2ccc(F)cc2)oc1=O,,inactive: -0.56%

Compound,Potency,"activity change, negative = displacement"
Cc1ccc(CCNC(=O)c2ccc3[nH]c(C)c(C)c3c2)cc1,"inconclusive: 10 µM [inhibitor, partial curve]",
Cc1cc(C)cc(-n2cnc3cc(C(=O)NC4CCCCCC4)ccc32)c1,"inconclusive: 12.6 µM [inhibitor, single point]",
COc1ccc(/C=C2\SC(=NCc3ccccc3)NC2=O)cc1,"inconclusive: 31.6 µM [inhibitor, partial curve]",
COc1ccc(-c2[nH]ncc2-c2ccc3c(c2)OCCO3)c(O)c1,"inconclusive: 25.1 µM [inhibitor, partial curve]",
CCn1ncc(Br)c1C(=O)Nc1ccc(C(=O)OC(C)C)cc1,"inconclusive: 28.2 µM [inhibitor, partial curve]",
Cc1c(C(=O)NC(C)c2ccncc2)oc2ccccc12 (configuration not stated),,inactive: -2.16%
CCOc1cccc(/C=C2/NC(=O)N(CC(=O)Nc3cccc(C)c3)C2=O)c1O,"inconclusive: 11.2 µM [inhibitor, partial curve]",
O=C(CCS(=O)(=O)c1ccccc1)Nc1nc2cc3c(cc2s1)OCCO3,"inconclusive: 11.2 µM [inhibitor, partial curve]",
CC(C)(C)c1ccc(CN2C(=O)CSC2=O)cc1,"inconclusive: 35.5 µM [inhibitor, partial curve]",
CCOc1ccc2nc(SCC(=O)NC(=O)NCc3ccco3)sc2c1,"inconclusive: 6.31 µM [inhibitor, full curve, poor fit]",
CC(C)(c1ccccc1)c1ccc(OCCN)cc1,"inconclusive: 10 µM [inhibitor, partial curve]",
COc1ccc(NC(=O)c2cccnc2Nc2ccc(OC)cc2)cc1,"inconclusive: 31.6 µM [inhibitor, partial curve]",
Cc1nc(-c2ccccc2)sc1C(=O)/C=C/c1ccccc1,"inconclusive: 15.8 µM [inhibitor, partial curve]",
COc1ccc2c(c1)CC/C(=C\c1ccc(OC)c(Cn3cccn3)c1)C2=O,"inconclusive: 17.8 µM [inhibitor, partial curve]",
Cc1cccc(CSc2cccc3cccnc23)c1,"inconclusive: 14.1 µM [inhibitor, partial curve]",
COc1cc(Cl)c(S(=O)(=O)NCCCn2ccnc2)cc1Cl,"inconclusive: 31.6 µM [inhibitor, single point]",
CCN(CC)CCCNC(=O)c1cn(C)c(=O)c2c1c1ccccc1n2C,,inactive: 9.97%
Cc1cc(-c2ccc(Br)cc2)n[nH]1,"inconclusive: 20 µM [inhibitor, partial curve]",
C=CCN(C)CCCCCCOc1ccc(C(=O)c2ccc(Br)cc2)c(F)c1,"inconclusive: 25.1 µM [inhibitor, partial curve]",
CN(Cc1cccc2cnccc12)C(=O)c1cc(COc2ccc(F)cc2Cl)on1,"inconclusive: 31.6 µM [inhibitor, single point]",
CCCSCCCNC(=O)Cn1c(=O)c2cccn2c2ccccc21,,inactive: -9.86%
COC(=O)c1cccc(COC(=O)c2cccnc2SC)c1,"inconclusive: 15.8 µM [inhibitor, partial curve]",
N#Cc1ccccc1CSC1=NCCS1,"inconclusive: 39.8 µM [inhibitor, partial curve]",
Cc1cc(Cl)cc(Br)c1OCCCN1C(=O)NC(C)(C)C1=O,"inconclusive: 35.5 µM [inhibitor, partial curve, poor fit]",

Compound,Potency,"activity change, negative = displacement"
CCc1ccccc1NC(=O)CCCN1C(=O)CCn2nc(-c3cn(C)c4ccccc34)cc21,"inconclusive: 8.91 µM [inhibitor, partial curve]",
CCOCc1cc(CN2CCN(c3ccccc3OC)CC2)c(O)c2ncccc12,,inactive: -6.08%
CO/N=C(\Cn1ncc(NC2CCCCC2)c(Br)c1=O)c1ccc(Cl)cc1,"inconclusive: 14.1 µM [inhibitor, partial curve]",
COc1cccc(/C=N/NC(N)=S)c1OCc1cccc(Cl)c1,,inactive: 0.941%
CCCC(C(=O)NC1CCCC1)N(Cc1cccs1)C(=O)c1snc(C(N)=O)c1N (configuration not stated),"inconclusive: 10 µM [inhibitor, partial curve, poor fit]",
O=C1NC(NS(=O)(=O)c2ccccc2)(C(F)(F)F)C(=O)N1c1ccc(F)cc1 (configuration not stated),inactive,
Cc1ccc(OCC(=O)Nc2ccc3c(c2)nc(CCN2CCCCC2)n3C)cc1,"inconclusive: 28.2 µM [inhibitor, partial curve]",
Cc1ccc(NC(=O)Cn2nc(-c3ccccc3Cl)ccc2=O)c(Br)c1,active: 10 µM,
O=c1[nH]c2ccccc2nc1NCc1ccccc1,"inconclusive: 44.7 µM [inhibitor, partial curve]",
CC(=O)Nc1ccc(NC(=O)Nc2ccc(C)c(C)c2)cc1,,inactive: -9.36%
O=C(c1ccccc1)c1c2c(cc3sc4ccccc4[n+]13)-c1cccc3cccc-2c13,,inactive: -0.261%
CCN(CC)C(C)CN1c2ccccc2Sc2ccccc21 (configuration not stated),"inconclusive: 10 µM [inhibitor, partial curve]",
Cc1cc(C)n2c(Br)c(CSc3nc4ccccc4o3)nc2n1,"inconclusive: 20 µM [inhibitor, partial curve]",
Cc1occc1-c1nnc(SCC(=O)Nc2nc(-c3ccccc3)cs2)o1,"inconclusive: 20 µM [inhibitor, partial curve]",
CCOc1ccc(N(CC(=O)Nc2cccc(Cl)c2)S(=O)(=O)c2c(C)noc2C)cc1,,inactive: 51.8%
COc1cc(C=O)ccc1OCCOCCOc1cc(C)ccc1Cl,"inconclusive: 35.5 µM [inhibitor, partial curve]",
CCc1ccc(CNC(=O)Cn2nc(-c3ccc(C)cc3)ccc2=O)cc1,active: 3.16 µM and active: 10 µM,
CC(C)(C)C(=O)/C=C/Nc1ccccc1O,"inconclusive: 39.8 µM [inhibitor, partial curve]",
CC(=O)c1c(C)[nH]c(C(=O)OCC(=O)Nc2ccc(Cl)c(S(=O)(=O)N(C)C)c2)c1C,"inconclusive: 17.8 µM [inhibitor, partial curve]",
CC1CCCN(CCCNC(=O)c2ccc3c(c2)N(Cc2ccc(Cl)cc2)C(=O)c2ccccc2S3(=O)=O)C1 (configuration not stated),"inconclusive: 12.6 µM [inhibitor, partial curve]",
CCC(C)Nc1c([N+](=O)[O-])cc(C)cc1[N+](=O)[O-] (configuration not stated),"inconclusive: 35.5 µM [inhibitor, partial curve]",
CCC1SC2=NC(C)=C(C(=O)OC)C(c3ccc(C(=O)OC)cc3)N2C1=O (configuration not stated),"inconclusive: 31.6 µM [inhibitor, single point]",
CCCn1cc(S(=O)(=O)CC(=O)NC2CCCCC2)c2ccccc21,,inactive: -8.74%
CCn1c(SCCC(C)C)nnc1-c1c[nH]c2ccccc12,"inconclusive: 15.8 µM [inhibitor, partial curve]",
